Where two headings read alike, the source gives them in different places.
Key:
NUR77 and RARβ [1] = assay: Induction and localization of NUR77 and RARβ in HCT116 cells; format: cell-based; conditions: 48 hours, RA 10 μM, butyrate 5 mM, SAHA 5 μM, EGF 32 nM
Procedure: Proteins were immunoprecipitated by anti-NUR77 or anti-RARβ antibodies, or IgG, followed by Western blot using anti-RARβ or anti-NUR77 antibodies.
To study the effect of miR-22 in induction of cytosolic NUR77 by RA/butyrate, adenoviral-delivery of miR-22 inhibitors tagged with green fluorescence (adeno-miR-22 inhibitor-GFP, Applied Biological Materials Inc, Richond, BC) were used to infect HCT116 cells. At 48 hours post adenoviral infection, cells were treated with RA (10 μM) plus butyrate (5 mM) or DMSO for 24 hours. […] Cells were mounted in ProLong® Gold Antifade Reagent with DAPI (4′,6-diamidino-2-phenylindole, Life Technologies, Carlsbad, Calif.) and imaged under Keyence BZ-9000 microscope.

NUR77 and RARβ [2] = assay: NUR77 and RARβ in Huh7 cells (immunoprecipitation, Western blot, staining)
Huh7 and HCT116 cells = conditions: cited from earlier work
[3] = system: CYCLIN A2, HDAC1, HDAC4, SIRT1; assay: Protein levels in Huh7 liver cancer cells
[4] = system: HDAC1, HDAC4, SIRT1, cyclin A2 (CCNA2); assay: Western blot of protein deacetylases and cyclin A2 in HCT116 cells; format: cell-based; conditions: for Protein levels of HDAC1, HDAC4, SIRT1, cyclin A2 after miR-22 (mimic) transfection: HCT116 cells, 48 hours after transfection, vs. scramble control; for CYCLIN A2 levels: colon HCT116 cells, CDCA treatment or miR-22 mimic transfection
Procedure: HCT116 cells were transfected with either an miR-22 mimic or a scramble control, and 48 hours later the protein levels of HDAC4, SIRT1, and cyclin A2 were measured (FIG. 3B). The expression of all three proteins was reduced by treatment with the miR-22 mimic.
Western blot and immunoprecipitation were performed as described previously^22. Specific antibodies used included anti-NUR77, RARβ, SIRT1, β-actin, and IgG (Santa Cruz Biotechnology, Santa Cruz, Calif.), phospho-JNK1/2, total JNK1/2, cleaved caspase3, HDAC1 and HDAC4 (Cell Signaling Technology, Beverly, Mass.), and CCNA2 (Novus Biologicals, Littleton, Colo.). To detect protein acetylation of NUR77 and RARβ, cell lysates (500 μg) were incubated with anti-NUR77, RARβ, or IgG antibody (1 μg), precipitated by adding Dynabeads (30 μl, Life Technologies, Carlsbad, Calif.), and probed with anti-Acetyl-lysine antibody (Cell Signaling Technology, Beverly, Mass.). To study the interaction between RARβ and NUR77, whole-cell lysates were precipitated with anti-RARβ or NUR77 antibody followed by Western blot using anti-NUR77 or RARβ antibody.

3′UTR of HDAC1 = assay: psiCHECK2-HDAC1 3′UTR luciferase assay in HCT116 cells; format: cell-based; conditions: miR-22 mimics 20 nM, 24 hours after transfection
Procedure: Cells were also transfected with either miR-22 mimics or miR-22 inhibitors. Scramble controls were used as negative controls.
To establish miR-22 inhibition of HDAC1, in vitro functional assays were conducted using miR-22 mimics and inhibitors. psiCHECK2-HDAC1 containing the 3′UTR of HDAC1 was constructed and co-transfected with either miR-22 mimics or inhibitors into HCT116 cells. […] Together, HDAC1 is a novel miR-22 direct target, and miR-22 inhibits multiple protein deacetylases in colon cancer cells
Renilla luciferase activity was standardized to firefly luciferase activity.

Substance	Induction and localization of NUR77 and RARβ (immunostaining) (NUR77 and RARβ [1])	Nuclear NUR77 and cleaved caspase 3 (NUR77 and RARβ [2])	Number of G0/G1 cells (Huh7 and HCT116 cells)	CYCLIN A2 levels [3]	CYCLIN A2 levels ([3]; listed as miR-22 mimics)	Protein levels of HDAC1, HDAC4, SIRT1, cyclin A2 after miR-22 (mimic) transfection [4]	Protein levels of HDAC1, HDAC4, SIRT1, cyclin A2 after miR-22 (mimic) transfection ([4]; listed as miR-22 mimics)	CYCLIN A2 levels [4]	CYCLIN A2 levels ([4]; listed as miR-22 mimics)	Inhibition of luciferase activity of psiCHECK2-HDAC1 (3′UTR of HDAC1)
EGF: epidermal growth factor, mitogen	induced nuclear NUR77, but not RARβ	increased nuclear NUR77, but no cleaved caspase 3								
miR-22 mimic: miR-22 mimics (Life Technologies), transfected at 20 nM (guide AAGCUGCCAGUUGAAGAACUGU; mimic duplex, passenger strand not given here)			increased the number of G0/G1 Huh7 and HCT116 cells	repression of cyclin A2	reduced CYCLIN A2 levels	reduced	reduced the protein levels of HDAC4 and SIRT1	repression of cyclin A2	reduced CYCLIN A2 levels	roughly 30%
